Assay results as given in the supplement of paper PMC3334620.
Over roughly 33,000 sequences, “E-score (-0.5 to 0.5)” has its median near -0.043; the highest 2% begin near 0.37. This is one part of the list.

Target: T1, Upc2 (UniProt Q12151)
T1 sequence: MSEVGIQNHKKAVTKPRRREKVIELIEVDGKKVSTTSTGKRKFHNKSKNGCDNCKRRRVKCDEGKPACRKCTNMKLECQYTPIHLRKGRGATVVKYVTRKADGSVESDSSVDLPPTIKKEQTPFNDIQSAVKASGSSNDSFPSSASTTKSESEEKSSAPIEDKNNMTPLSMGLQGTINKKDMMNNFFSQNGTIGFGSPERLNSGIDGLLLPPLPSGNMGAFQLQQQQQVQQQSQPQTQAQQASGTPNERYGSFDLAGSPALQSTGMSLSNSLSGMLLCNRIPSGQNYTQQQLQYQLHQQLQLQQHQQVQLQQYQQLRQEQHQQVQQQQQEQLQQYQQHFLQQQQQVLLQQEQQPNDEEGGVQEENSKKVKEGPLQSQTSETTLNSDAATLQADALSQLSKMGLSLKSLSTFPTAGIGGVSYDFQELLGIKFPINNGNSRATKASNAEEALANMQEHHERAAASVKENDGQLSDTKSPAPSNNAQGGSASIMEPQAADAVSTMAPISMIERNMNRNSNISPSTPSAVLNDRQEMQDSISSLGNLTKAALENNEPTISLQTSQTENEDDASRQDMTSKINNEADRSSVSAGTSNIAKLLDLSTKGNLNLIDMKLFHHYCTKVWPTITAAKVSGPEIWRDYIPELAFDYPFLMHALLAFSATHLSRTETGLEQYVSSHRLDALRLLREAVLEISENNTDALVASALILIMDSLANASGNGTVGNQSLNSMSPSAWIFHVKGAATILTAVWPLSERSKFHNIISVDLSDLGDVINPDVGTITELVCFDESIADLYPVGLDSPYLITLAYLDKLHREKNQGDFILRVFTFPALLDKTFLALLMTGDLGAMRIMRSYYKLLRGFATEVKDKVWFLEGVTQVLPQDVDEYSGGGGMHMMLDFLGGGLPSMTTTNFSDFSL
Experiment: PBM E-score (8-mer binding enrichment) (E-score (-0.5 to 0.5)); higher = stronger / more preferred TF binding; most listed sequences are background and not binding sites
Conditions: protein concentration: 200 nM; construct: GST-full length
How it was run: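 For each ungapped eight-base word taken together with its reverse complement, the Universal PBM Analysis Suite assigned an E-score. Binding data came from GST-tagged yeast transcription factors, applied at about 100-200 nM, on universal all-10-mer Agilent arrays made double-stranded by primer extension. Fluorescent anti-GST marked bound protein, and scans were normalised with masliner.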

Sequence | PBM E-score
CGCCTTAC | 0.155
ATAGATAC | 0.142
GTACACGA | 0.336
CCGTATGA | 0.392
TTACTGAA | 0.182
AGCAGTCC | -0.299
CGCGCTGA | -0.165
GACATTCA | -0.0852
CACTTATC | 0.0599
CTGGGCAA | -0.038
ACTGGTAG | -0.242
CAATTTAA | 0.0893
ACGACTTC | 0.272
GGCGTACA | 0.269
ATATTCAC | -0.0879
CCACGTCC | -0.248
CGGTTCTC | -0.00834
CCGCTACG | 0.362
GAGGCACC | -0.15
ACCTGTTG | -0.055
CAAGGGGC | -0.307
AAGACGCG | 0.00366
ACATCCGA | 0.102
TAATGACA | 0.167
ACACAATG | -0.0402

Sequence | PBM E-score
AGTAACTG | -0.147
ACGGACAA | 0.0585
AGCAAACT | 0.151
CGTGTTGC | -0.00376
CGATCGCG | 0.199
ACTTTTTC | 0.0345
CAGCCTCA | -0.0411
AAAATAGC | -0.14
GGTGTTAC | -0.204
AACACGAC | 0.0603
AATCTCAA | 0.0819
CCACCTCA | -0.156
ACTTAGCA | -0.0953
GAGCTTCC | 0.139
CACCGCAA | 0.206
GCTCCTCC | -0.307
AGACAAAA | -0.149
ATGCTGGA | -0.0287
GCACTCGC | -0.0642
GCAGCGGA | 0.0273
AAGTGACA | 0.0296
GCTAGCAC | -0.0935
TACCCATA | -0.0492
GGGTGTGA | -0.258
CCTCCGCA | -0.198

Sequence | PBM E-score
CATCCATA | 0.0881
CACAGGAA | -0.14
ACAATCGG | -0.0781
GCATTGAC | -0.0811
AGTAACGG | 0.0726
GGGATCAC | -0.223
CGGCCCTC | -0.0152
CCGATAGC | -0.115
AGGAGTAT | -0.214
AGATAGCC | -0.124
CGCAGACC | 0.0191
ATCTTCTG | -0.0958
CCCGACGC | -0.193
AAGAAGAC | -0.272
CAGAATTC | -0.03
AACCCACA | 0.0629
CCCGATCA | 0.0861
CACAGTGG | -0.145
GGACCGAC | 0.126
AACATGGA | -0.2
GGGATAGA | -0.232
GATGTGCC | -0.178
GACCTGGC | -0.271
CGTTTACC | 0.449
GATCCAAC | 0.0134

Sequence | PBM E-score
CTTACAAC | -0.00608
CTGAGCAG | -0.0274
AACGCCGC | 0.11
CCCTATAG | -0.194
GTAGTAAC | 0.075
CACAAGGA | -0.208
ACTGGGGG | -0.219
AATTGCGG | -0.0537
GTTCGAGA | 0.0543
ATAAAGCC | -0.107
AACTTCCT | -0.207
CAGTAGAA | -0.165
CGGGTGAC | -0.0722
GCGACGCC | 0.143
AGAATATG | -0.0459
GCCGTCAC | -0.016
CTATTCTA | -0.107
GCGTGCGA | 0.143
GGAGGAAA | -0.052
GTGCTGCA | -0.253
CCCGGAGA | -0.0247
CGTGAAAA | 0.111
GCTGACGA | -0.0868
ATCAGGGC | 0.0213
CTTCATCA | -0.0638

Sequence | PBM E-score
CGATAGGC | -0.00928
AGGGACTA | -0.242
ATGGTGAC | -0.141
CAGAACTC | -0.2
AATGATGG | -0.00188
AATTCCCG | -0.0145
CAAGAATG | -0.233
GATAACAC | -0.037
AGGTATCC | -0.00567
ACATACAC | 0.121
CAATGTTA | -0.0331
CGGGACAC | -0.0693
AAAACTGG | -0.105
ACCTCGCC | -0.0273
ACAGCACT | -0.0782
TATACATA | 0.114
CGAAGCAC | -0.0203
GGCGACCA | -0.311
GGCTGTTA | -0.0733
GTAGAACA | -0.0692
AACTAATT | -0.0886
CGTCGTTA | 0.376
GCTTTCTA | -0.00187
CACACAAG | -0.133
GCTTTAGA | 0.0153

Sequence | PBM E-score
AGGATATA | -0.185
CCAGTGTA | 0.0133
ACAGCATG | -0.00586
AATAGCCT | -0.081
TCAGTTAA | -0.071
ACTGCATG | -0.0391
CCATCTGA | -0.0848
CAAGCAAA | -0.0667
TTCAAAAA | -0.0757
TAAGCTTA | -0.0247
CACACATC | -0.24
GTCGGACA | 0.131
TGGAGACA | -0.154
TAGCCTAA | -0.0607
GTAGGGAC | -0.192
ACTGGTGC | -0.11
GAGGCGGC | -0.0405
CATATGAG | -0.0883
GGCAGGAA | -0.24
GTACGGTA | 0.365
ACCAAGAC | -0.0288
ATCCGAAA | 0.166
CTCTTCGA | 0.0167
CCGCGAGG | -0.00963
AGTCTCCC | -0.212

Sequence | PBM E-score
AGCGGACG | 0.0725
CGCTGAAA | -0.0593
AGCTATAT | 0.00328
TCAATTCA | -0.00862
GCCTCCTA | -0.322
GGGCGAGA | -0.183
CCCTTCCC | -0.26
CTAAGACC | -0.109
CTCCATAA | -0.23
AAGTGCCG | 0.0101
GCTGGACA | -0.251
AAAAAACC | -0.0385
AGAGCCAA | -0.0745
TGGGACCA | -0.236
GAGTAAAA | -0.0456
ACTAAATG | -0.174
CAGGAAGC | -0.0476
GCGTGCAA | -0.0529
AGTGCCAC | -0.207
AAAACCGG | -0.11
AAGCTGGG | -0.281
AGATGTCC | -0.0285
